Data reported in PubChem BioAssay AID504832 (National Center for Advancing Translational Sciences (NCATS), 2011).
About 18,000 (5.8%) of roughly 310,000 compounds were called active. The inconclusive results got no clear call from the source; some entries with a clear call stand among them for comparison. Calls come from the whole dose curve; as a rule, active = well fitted inhibition curve with a large enough effect; inconclusive = small, poorly fitted or top-dose-only effect, or another doubt; inactive = no such curve, though single readings can be large or run the other way. No potency is given beside an inconclusive call; the fits are too rough.

Experiment: Primary qHTS for delayed death inhibitors of the malarial parasite plastid, 48 hour incubation
Settings: P. falciparum luciferase growth in erythrocytes; series mostly up to 28.7 µM
Procedure, shortened: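 In quantitative HTS format, infected erythrocytes bearing luciferase-reporter parasites were treated for a single generation at 37 C. Luminescence after adding detection reagent served as the growth measure.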
Potency is the fitted concentration of half-maximal effect; tags give direction and shape of the fitted curve.

SMILES	Potency
Cc1ccc(N2CC(O)=C(c3ccccc3)C2=N)cc1	inactive
CCc1ccc2[nH]c3nc(N/N=C/c4ccc(O)cc4O)nnc3c2c1	active: 8.28 µM
Cc1ccc2cc(C(c3nnnn3Cc3ccccc3)N3CCc4ccccc43)c(=O)[nH]c2c1C (centres undefined)	active: 10.4 µM
CCOC(=O)[C@H]1[C@H]2COc3ccc(OC)cc3[C@@H]2N2C(=O)c3ccc(C)cc3NC(=O)[C@@]12C	inconclusive [inhibitor, partial curve, poor fit]
Cn1cccc1C(=O)NCC1COc2ccccc2O1 (centres undefined)	inactive
COc1cc(Cl)ccc1OCc1cc(C(=O)NCC(C)c2ccccc2)no1 (centres undefined)	inactive
CCn1cc(CNC(=O)c2cc(-c3ccccc3OC)nc3ccccc23)c(C)n1	inconclusive [inhibitor, partial curve, poor fit]
COc1ccccc1NC(=O)CC(=O)c1ccccc1	inactive
O=C(CCCCn1c(=O)c2ccccc2n(CC(=O)NC2CCCC2)c1=O)NC1CCCC1	inconclusive [inhibitor, single point]
CCCc1nc2c(C)cc(C)cc2c(N)c1CC	active: 9.28 µM
O=[n+]1c2c(n([O-])c3cc(Br)ccc31)CCCC2	inconclusive [inhibitor, single point]
COc1ccc(N(CC(=O)NC2CCCC2)C(=O)CCC(=O)Nc2cc(C)on2)cc1OC	inactive
COc1ccccc1C(=O)N/C(=C\c1cn(S(=O)(=O)N(C)C)c2ccccc12)C(=O)N1CCOCC1	inconclusive [inhibitor, partial curve]
COc1ccc(C2=NN(C(=O)CSc3nnc(C)c(=O)n3N)C(c3ccco3)C2)cc1 (centres undefined)	inconclusive [inhibitor, single point]
C/C(CC(c1ccccc1)c1c(O)c2ccccc2oc1=O)=N\NC(N)=S (centres undefined)	inconclusive [inhibitor, single point]
CCN(CC)CC(=O)N1c2ccccc2Sc2ccc(Cl)cc21	inconclusive [inhibitor, single point]
Cc1cc(=O)n2nc(N3CCC(C(=O)NCc4cccc(Cl)c4)CC3)sc2n1	inconclusive [inhibitor, partial curve, poor fit]
CCCCCCCNC(=O)C1(CC2CC(c3ccc(Cl)cc3)=NO2)CCN(C(=O)OC(C)(C)C)CC1 (centres undefined)	inconclusive [inhibitor, full curve, poor fit]
O=C(COC(=O)CNC(=O)c1cccs1)Nc1ccc(C(F)(F)F)cc1[N+](=O)[O-]	inconclusive [inhibitor, single point]
Brc1ccc(N=Nc2ccc3ccccc3n2)cc1	active: 0.329 µM
CCOc1ccccc1-c1noc(CCCC(=O)NC2CCCCC2)n1	inconclusive [inhibitor, single point]
O=C(N/N=C/c1ccc([N+](=O)[O-])cc1)c1ccc(NS(=O)(=O)c2cccs2)cc1	inconclusive [inhibitor, single point]
Cc1oc(-c2ccccc2)cc1C(=O)Nc1ccc2ccccc2c1	inactive

SMILES	Potency
CC[n+]1c(/C=C/c2cc([N+](=O)[O-])ccc2O)ccc2ccccc21	inconclusive [inhibitor, partial curve, poor fit]
Cc1ccc(CNC(=O)C2CCC(CNS(=O)(=O)c3cccc4cccnc34)CC2)cc1 (centres undefined)	inconclusive [inhibitor, partial curve, poor fit]
Fc1ccc2c(c1)[C@H]1OCC[C@H]1[C@@H](c1ccco1)N2	inactive
CCCn1c(N)c(C(=O)CSc2nc3ncc(Cl)cc3[nH]2)c(=O)n(C)c1=O	inconclusive [inhibitor, partial curve, poor fit]
CCN(CC)c1ccc(Nc2cc3n(c(=O)n2)CCc2cc(OC)c(OC)cc2-3)cc1	inconclusive [inhibitor, full curve]
CC(C)(C)C(=O)O/N=C(\N)c1ccc([N+](=O)[O-])s1	inconclusive [inhibitor, partial curve, poor fit]
COc1ccc(CC(=O)OCc2cc3ccccc3[nH]c2=O)cc1	inconclusive [inhibitor, partial curve]
COc1cc(OC)cc(C(=O)NCc2n[nH]c(=S)n2-c2ccccc2OC)c1	inconclusive [inhibitor, single point]
COc1ccc2c(c1OC)C[N+]1([O-])CCc3cc4c(cc3C1C2)OCO4 (centres undefined)	inconclusive [inhibitor, single point]
C=CCNC(=O)COc1ccccc1C#N	inconclusive [inhibitor, partial curve, poor fit]
CC(=O)c1cnc2c(-c3ccccc3)c(C(F)(F)F)nn2c1C	inconclusive [inhibitor, full curve]
O=C(NCc1n[nH]c(=S)n1-c1ccc(Cl)c(Cl)c1)c1ccco1	inconclusive [inhibitor, single point]
COc1ccc(CCC(=O)NNC(=O)Nc2cccc(Cl)c2)cc1	inactive
CC(NC(=O)c1ccco1)C(=O)N1CCc2ccccc2C1 (centres undefined)	inconclusive [inhibitor, single point]
COc1cc(/C=N/N=C2/C(=O)Nc3ccccc32)cc(OC)c1O	inactive
COc1cc(/C=C(/C#N)C(=O)NCc2ccccc2)cc(OC)c1OC	inconclusive [inhibitor, single point]
Cc1ccc(NC(=O)N2CCC(C(=O)NCc3ccc(F)cc3)CC2)cc1	inconclusive [inhibitor, single point]
COc1ccc(-n2c(SC(C)C(=O)Nc3ncc(Cl)cc3Cl)nc3ccccc32)cc1 (centres undefined)	active: 10.4 µM
Oc1ccc(Cl)c2cccnc12	active: 13.5 µM
Clc1ccc(-c2cn3cccnc3n2)cc1Cl	inactive
CCOC(=O)c1ccc(NC(=O)CSc2n[nH]c(-c3ccncc3)n2)cc1	inconclusive [inhibitor, partial curve]
Nn1c(COc2ccccc2F)nnc1SCC(=O)NC1CCCCC1	inactive
CCC1CCCCN1Cc1nc2c(c(=O)n(C)c(=O)n2C)n1CCC(C)C (centres undefined)	inconclusive [inhibitor, single point]

SMILES	Potency
C=CCNC(=O)/C(C#N)=C/c1c(N2CCN(c3ccc(OC)cc3)CC2)nc2c(C)cccn2c1=O	active: 13.1 µM
CCOCc1c(C(=O)NC2CCCCCC2)oc2ccccc12	inconclusive [inhibitor, single point]
COc1ccc(C(CNC(=O)CCNC(=O)c2ccc(Br)cc2)N2CCOCC2)cc1 (centres undefined)	inconclusive [inhibitor, partial curve, poor fit]
CCN(CC)S(=O)(=O)c1ccc(/C=C/C(=O)Nc2ccccc2N2CCOCC2)cc1	inconclusive [inhibitor, full curve]
COc1ccc(CCn2c(N)cc(=O)[nH]c2=S)cc1OC	inconclusive [inhibitor, single point]
CC(=O)C1=C(O)CC(c2ccccc2)CC1=NCCc1c(C)[nH]c2ccc(C)cc12 (centres undefined)	inconclusive [inhibitor, single point]
Cc1cc(C)nc(NC(=S)Nc2cccc(F)c2)c1	inconclusive [inhibitor, partial curve, poor fit]
COc1ccccc1NC(=O)CCNS(=O)(=O)c1ccc2c(c1)CCN2C(C)=O	inactive
O=C(/C=C/c1ccc(Cl)cc1)NC(=S)Nc1ccc(N2CCOCC2)c(Cl)c1	inactive
COc1cc(NC(=O)c2sc3ncn(CC(=O)N4CCCCC4)c(=O)c3c2C)cc(OC)c1OC	inconclusive [inhibitor, partial curve]
COCCCNC(=O)CSc1ccsc1[N+](=O)[O-]	inactive
CC1CC(C)CN(C(=O)c2cc(S(=O)(=O)N3CCCCC3)ccc2Cl)C1 (centres undefined)	inconclusive [inhibitor, single point]
Cc1cc(C(=O)CSc2nc3ccc(Cl)cc3[nH]2)c(C)n1C	inconclusive [inhibitor, single point]
c1ccc2nc3ccccc3nc2c1	inactive
CSc1nsc(N/N=C/c2ccccc2)c1C#N	inactive
Cc1ccc(-c2csc(N(CCO)CCCn3c(C(F)(F)F)nc4ccccc43)n2)cc1	inconclusive [inhibitor, full curve, poor fit]
CCOc1cc2[nH]c(=O)n(Cc3ccc(C(=O)NCCOC)cc3)c(=O)c2cc1OCC	inconclusive [inhibitor, single point]
CC(Sc1nnc(-c2ccco2)n1C)C(=O)N(C)C1CCCCC1 (centres undefined)	inconclusive [inhibitor, single point]
Cc1ccc(CC(=O)NCC2CCCCC2)cc1	inactive
CC(=O)Nc1ccc(Nc2cc(-c3ccccc3)nc3ncnn23)cc1	inconclusive [inhibitor, single point]
Cc1ccc(NC(=O)C(C)Sc2nc3nc(C)cc(C)n3n2)cc1 (centres undefined)	inconclusive [inhibitor, single point]
COc1ccc(C(=O)CSc2nnn(-c3cccc(NC(C)=O)c3)n2)cc1	inactive
CCCCn1c2ccc(F)cc2c2nnc(SCCN3CCCCC3)nc21	inconclusive [inhibitor, partial curve, poor fit]
